This note sets out measurements from the antibiotic and cytotoxicity screens of Wong et al. (2023).

For one assay, the system named is HSkMC. Nature of the assay: cytotoxicity call (relative viability < 0.9). The settings on record: 10 µM.
A further assay has as its system HepG2. Nature of the assay: cytotoxicity call (relative viability < 0.9). Particulars: 10 µM.
Another assay concerns S. aureus RN4220. In words: growth inhibition call (relative growth <= 0.2). The settings on record: 50 µM.

The list shows a part of the results.

In the case of `Nc1ccccc1O`, the cytotoxicity call in the assay with HSkMC and with HepG2 was “inactive” in each case. The growth inhibition call with S. aureus RN4220 is “inactive”.

Consider `C[C@@H]1CCCCO[C@@H](CN(C)S(=O)(=O)c2ccc(F)cc2)[C@H](C)CN([C@H](C)CO)C(=O)c2cc(NC(=O)C3CCCCC3)ccc2O1`, for which the cytotoxicity call in the assay on HSkMC is “inactive”. Further, the cytotoxicity call with HepG2 is “active”. The growth inhibition call in the assay on S. aureus RN4220 was “inactive”.

For `C[C@@H]1CCCCO[C@H](CN(C)S(=O)(=O)c2cn(C)cn2)[C@H](C)CN([C@H](C)CO)C(=O)c2cc(NS(=O)(=O)c3ccccc3)ccc2O1`, the cytotoxicity call with HSkMC and in the assay with HepG2 was “inactive” each time. Besides, the growth inhibition call with S. aureus RN4220 was “inactive”.

On to `C[C@H](CO)N1C[C@H](C)[C@@H](CN(C)S(=O)(=O)c2cccs2)Oc2c(NS(=O)(=O)c3ccc(F)cc3)cccc2C1=O`, for which the cytotoxicity call with HSkMC and in the assay on HepG2 was “inactive” each time. For the same compound, in the assay on S. aureus RN4220, the growth inhibition call was “inactive”.

For the compound `C[C@@H]1CCCCO[C@H](CN(C)Cc2ccc(Cl)c(Cl)c2)[C@H](C)CN([C@H](C)CO)C(=O)c2cc(NC(=O)CCC(F)(F)F)ccc2O1`, in the assay on HSkMC, the cytotoxicity call is “inactive”. The cytotoxicity call in the assay with HepG2 is “active”. Moreover, in the assay with S. aureus RN4220, the growth inhibition call is “inactive”.

With `CCOC(=O)C(=O)N(C)CC(OC)OC`, the cytotoxicity call in the assay on HSkMC and in the assay with HepG2 was “inactive” throughout. Also, the growth inhibition call in the assay on S. aureus RN4220 is “inactive”.

For the compound `CC12CC3CC(C)(C1)CC(N)(C3)C2.Cl`, the cytotoxicity call in the assay with HSkMC was “inactive”. Also, the cytotoxicity call in the assay on HepG2 was “active”. Moreover, the growth inhibition call in the assay with S. aureus RN4220 was “inactive”.

Consider `C[C@@H]1CCCCO[C@@H](CN(C)C(=O)NC2CCCCC2)[C@H](C)CN([C@H](C)CO)C(=O)c2cc(NC(=O)Nc3ccc(F)cc3)ccc2O1`, for which the cytotoxicity call with HSkMC and in the assay on HepG2 was “inactive” throughout. Further, in the assay with S. aureus RN4220, the growth inhibition call is “inactive”.

With `C[C@H](CO)N1C[C@H](C)[C@H](CN(C)S(=O)(=O)c2ccccc2)OCCCC[C@H](C)Oc2ccc(NC(=O)Nc3ccccc3)cc2C1=O`, the cytotoxicity call in the assay with HSkMC and in the assay on HepG2 was “inactive” each time. For the same compound, the growth inhibition call in the assay with S. aureus RN4220 was “inactive”.

As to `Cc1ccc(S(=O)(=O)Nc2ccc3c(c2)CC(=O)N([C@@H](C)CO)C[C@H](C)[C@H](CN(C)S(=O)(=O)c2c(C)noc2C)O3)cc1`, the cytotoxicity call in the assay on HSkMC and with HepG2 was “inactive” throughout. Moreover, the growth inhibition call in the assay with S. aureus RN4220 was “inactive”.

As to `CCCC(=O)Nc1ccc2c(c1)OC[C@H](C)N(S(=O)(=O)c1cn(C)cn1)C[C@@H](C)[C@@H](OC)CN(C)C2=O`, the cytotoxicity call in the assay on HSkMC and with HepG2 was “inactive” in each case. Besides, the growth inhibition call in the assay on S. aureus RN4220 was “inactive”.

Take `C[C@@H]1CCCCO[C@@H](CN(C)C(=O)Nc2ccc(C(F)(F)F)cc2)[C@H](C)CN([C@@H](C)CO)C(=O)c2cc(NC(=O)C3CCCCC3)ccc2O1`: the cytotoxicity call in the assay with HSkMC and in the assay with HepG2 was “inactive” throughout. In addition, the growth inhibition call in the assay on S. aureus RN4220 was “inactive”.

As for `C[C@@H]1CN([C@@H](C)CO)C(=O)c2ccccc2-c2ccccc2CO[C@H]1CN(C)C(=O)N[C@H](C)c1ccccc1`, the cytotoxicity call in the assay on HSkMC and with HepG2 was “inactive” in each case. For the same compound, the growth inhibition call in the assay with S. aureus RN4220 is “inactive”.

For the compound `C[C@@H]1CN([C@H](C)CO)C(=O)c2cc(NC(=O)Nc3ccc(C(F)(F)F)cc3)ccc2O[C@H]1CN(C)C(=O)Nc1ccccc1`, the cytotoxicity call with HSkMC and with HepG2 was “inactive” each time. Further, in the assay with S. aureus RN4220, the growth inhibition call is “inactive”.

`COc1ccc(NC(=O)N(C)C[C@H]2Oc3ccc(NC(=O)CCCCCC(=O)Nc4ccccc4N)cc3C(=O)N([C@H](C)CO)C[C@@H]2C)cc1`: the cytotoxicity call with HSkMC and in the assay on HepG2 was “inactive” throughout. In addition, the growth inhibition call in the assay on S. aureus RN4220 was “inactive”.

For the compound `O=C(O)CSCC(=O)N[C@H]1CCSC1=O`, the cytotoxicity call with HSkMC and with HepG2 was “inactive” throughout. The growth inhibition call with S. aureus RN4220 was “inactive”.

As for `Oc1ccc([C@@H]2C=CCC2)cc1`, the cytotoxicity call in the assay on HSkMC and in the assay on HepG2 was “inactive” in each case. Moreover, the growth inhibition call with S. aureus RN4220 was “inactive”.

In the case of `COc1ccccc1-c1ccc2c(c1)O[C@@H](CN(C)CC1CCOCC1)[C@@H](C)CN([C@H](C)CO)S2(=O)=O`, the cytotoxicity call in the assay with HSkMC and in the assay with HepG2 was “inactive” throughout. Further, the growth inhibition call in the assay on S. aureus RN4220 is “inactive”.

With `COc1ccc(CN(C)C[C@H]2OCCCC[C@H](C)Oc3ccc(NC(=O)NC(C)C)cc3C(=O)N([C@@H](C)CO)C[C@H]2C)cc1`, the cytotoxicity call with HSkMC and with HepG2 was “inactive” throughout. In addition, the growth inhibition call with S. aureus RN4220 was “inactive”.

`Cc1noc(C)c1S(=O)(=O)Nc1ccc2c(c1)C(=O)N([C@@H](C)CO)C[C@H](C)[C@H](CN(C)C(=O)Nc1ccc(C(F)(F)F)cc1)OCCCC[C@H](C)O2`: the cytotoxicity call in the assay on HSkMC and with HepG2 was “inactive” throughout. Further, the growth inhibition call with S. aureus RN4220 was “inactive”.

For the compound `NCCCCCNC(=O)[C@H]1C[C@H]2C(=O)NCC(=O)N2[C@H]1c1cccc(OCCO)c1`, the cytotoxicity call in the assay on HSkMC and with HepG2 was “inactive” throughout. Moreover, the growth inhibition call with S. aureus RN4220 is “inactive”.

Regarding `CC(C)NC(=O)Nc1ccc2c(c1)C(=O)N([C@H](C)CO)C[C@H](C)[C@H](CN(C)S(C)(=O)=O)OCCCC[C@H](C)O2`, the cytotoxicity call in the assay on HSkMC and in the assay with HepG2 was “inactive” in each case. The growth inhibition call in the assay with S. aureus RN4220 was “inactive”.

Turning to `CCS(=O)(=O)C1CNC1`, the cytotoxicity call in the assay on HSkMC and with HepG2 was “inactive” throughout. Moreover, the growth inhibition call in the assay with S. aureus RN4220 was “inactive”.

As to `C[C@H]1CN([C@@H](C)CO)C(=O)c2cccc(NC(=O)C3CC3)c2O[C@@H]1CN(C)S(=O)(=O)c1cn(C)cn1`, the cytotoxicity call in the assay on HSkMC (human skeletal muscle cells) and with HepG2 was “inactive” in each case. Further, the growth inhibition call in the assay with S. aureus RN4220 is “inactive”.

For `COc1ccc(NC(=O)Nc2ccc3c(c2)C(=O)N([C@@H](C)CO)C[C@H](C)[C@H](CN(C)S(=O)(=O)c2ccc(Cl)cc2)OCCCC[C@@H](C)O3)cc1`, the cytotoxicity call with HSkMC and in the assay on HepG2 was “inactive” in each case. The growth inhibition call in the assay on S. aureus RN4220 was “inactive”.

As for `Cc1noc(C)c1NC(=O)N(C)C[C@@H]1Oc2ccc(NC(=O)CCCN(C)C)cc2C(=O)N([C@H](C)CO)C[C@H]1C`, the cytotoxicity call in the assay with HSkMC and in the assay with HepG2 was “inactive” throughout. Besides, in the assay with S. aureus RN4220, the growth inhibition call was “inactive”.
